Results taken from the supplement of paper PMC12632987.
Over roughly 4,500 sequences, “median log2 fold change of GCK-ALFA target abundance (FLAG IP / Myc IP barcode read proportion)” has its median near 0.078; the lowest 2% begin near -0.6. Some of the results follow.

B1: GBRAP_128_3544 (protein)
chain: SLEAARARARAAMAAIAASDVETAYAITVELLEWLKTKSLEEVEAAVEEIEARLPELSAEKLEALADAIEEERGKFSPEVQRLLAGVEVEALNLAEELEE
B2: GBRAP_160_4385 (protein)
chain: AAALAALAKEIEALRKEFEEEAKDLNTEETRTLAIGVLAEVAALAWENEAISEETKDKIFAIIDEAIEELKANKDAPPEEIVAITTEAFDKIIALVKAEA
B3: GBRAP_80_6865 (protein)
chain: ADEKVAATLALAKSKDPELAALFEELVKELKKLGVSDEDIARIAEIISDIIELDPELAKEALKEMVKEAKKYLKEGKGEEALVVVLGIAGEALMEAEEKE
B4: GBRAP_184_5056 (protein)
chain: MIHEKVIKAETLEELEEKLEELEEELKDFKGELIVHVEIPEFTEEMIELIIERLKRILENGYVSSVTLGLDGKMSEEVVDLAIKLADEAGIKLVIALEEE
B5: GBRAP_184_5199 (protein)
chain: KVLEIEVTVSNLEEAKKKMEEILAKAKEEKADLLLILDLKTSTKEIIETIMNALGKIKKEGYAPNVLVELEGDLSDENIDLAFKLADEAGVSLVIALPEE
B6: GBRAP_160_4479 (protein)
chain: MEKVKEAAEELRERVEETLEESKDETPEQLTLAVSIELGSSLMEFSSEGKINDEQEDIVIEAMDRIRELGEEKKDATVEEVRKEIREIIKETVEKILAAA
B7: GBRAP_160_3976 (protein)
chain: SEEVEALKKEIEEIFEEAKELIEGESFEERLAIIKVAVGEIILLVSENPLMSDETEEKVAKIGDELIAYLEANPDLSLEEIKELIEKALEEIKKIIEEDA
B8: GBRAP_35_5547 (protein)
chain: DPETETVEMLLNTMEDIVLALPDVSPEDLETLTKHLIDLANLAIEEKPKNKELLERLIKALEEAIKIVEASDLPEEVKAELLKELEKARKEAEKLLEKVK
B9: GBRAP_35_5607 (protein)
chain: DSMKETVDMLVATIDDLTLAVPDLPVEQLVAIANSLIDSARALIEELTDDKEAAQRLLDSLQRLLDALKKHHGDNPLAQVTIARVEETIAFAKARIAAIK
B10: GBRAP_160_4009 (protein)
chain: SEETEKLKKEIEELIKELIEEMKGLTPEERLTLARGTVGEIIQLALESPAVSDETEEKIAEIGDEFLKRVEENANAPLEVWEEIAEEYLEKVKKLLEESE
B11: GBRAP_52_6284 (protein)
chain: SREEVKKTAEEIVELVKEGKLEEAIKLAKEAVEKFSLEEVIELGELLVEKIAELKPEEIDLALEVVEALAEGLEEKFGAEEEADILEARAAAAAYAALQR
B12: GBRAP_83_6988 (protein)
chain: AEKIAVAANGDRLEEAVEIAIDLTKEEGYDVSLEFIVDKSDWPRVLEAVRRLAEAGIETEILVSVEGATPEEAAEMLAELEAIAAEAGSNFRITVEVIEP
B13: GBRAP_150_3919 (protein)
chain: DLETLKTIVDTAIDILEAILDGEFSLLPHALKLAEIALEEAKEIDEELKKLAEEALKLVKEAKKLLEEGGKKEEILKAVKEALEVLKKLLKKIEEKIKEK
B14: GBRAP_128_3384 (protein)
chain: VPEEVKERAEKMAKELVEASLEEVPELVKKIVEEMEKLSDEEREYLVEVLEKAFEEMSLEKLEAILDTLLELRPKLSPKTQEFVNDLIVAVGEKILELEE
B15: GBRAP_78_6649 (protein)
chain: EVEELIDKALEHIDEAAKLAKKLPEEERNELLSELTLASSYLLESEENGFDLELLEEALKELEKAKELVKKLKSEVAPEILKELEEAIKLVKEAIKKVKE
B16: GBRAP_74_6520 (protein)
chain: MEELLKKLEEAAEAGDAEKAVELAREIVEKGDLETIERAARILVAFVDRHLDTLTPEELEAVSDALAELADALMERGGDSETVIAVANAAVRAEKKRLAL
B17: GBRAP_160_4018 (protein)
chain: SAAIEALIKEIEEEIEKTKEDMVGESPEERLTLARGTAGDILMLIFESPEVSDESEEKIAELLDKFLKKLEENKNASLEVWYEILDELLEEIKKILKEDE
B18: GBRAP_160_4125 (protein)
chain: MEEDIKTLKDAAEDLKETLETIETLSPEEAAVLAEVTLLNAALEMDELNGKFKELEDKAVEAADKIRETAKTDPEKTKETAKKELEEAAKAFEEAAKKLE
B19: GBRAP_184_5313 (protein)
chain: EVKEVVIEAETAEEAIEQLNKAAEKAKKEGVKLNVYLFLKNVDVEGFEKIAKKIKELKEEGIIESATVEILDDKTEEEIDKFIELADKAGIKLVLALPDE

The binders below were run against GABARAP, O95166 (assay: median log2 fold change of GCK-ALFA target abundance (FLAG IP / Myc IP barcode read proportion) (log2 ratio); each designed protein is fused to an ALFA-tag nanobody in HEK293 cells to bring the named protein to FLAG-tagged glucokinase (GCK); Myc marks an untargeted standard; higher = target protein stabilised (more abundant)). Conditions: target protein: 3xFLAG-MCP-GCK-ALFA reporter; HEK293 landing pad (RPLP).
Sequence of GABARAP, O95166 (O95166 whole entry, the tested form may be a part): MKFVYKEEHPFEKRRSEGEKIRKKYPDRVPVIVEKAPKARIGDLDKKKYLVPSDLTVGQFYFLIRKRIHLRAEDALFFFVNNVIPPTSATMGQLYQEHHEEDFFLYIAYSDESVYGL
Method in brief: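 HEK293 landing-pad cells received a recombined binder library fused to the ALFA nanobody and were induced with 2 μg mL^−1 doxycycline, then transfected with a plasmid encoding a FLAG-tagged target and a Myc-tagged standard. Lysates were collected after 48 h for anti-FLAG and anti-Myc immunoprecipitation, and the circular RNA barcodes were reverse transcribed, amplified and sequenced. Target abundance for each binder is the median log2 ratio of FLAG to Myc barcode read proportions. Barcodes had to reach a proportion of at least 10^−7 in both replicates, each binder needed at least 3 barcodes per replicate, a pseudocount of 10^−6 was applied, and the two replicates were pooled.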
In the case of B1, the “median log2 fold change” value is reported as -0.229. With B2 the “median log2 fold change” value was -0.171. For B3, the “median log2 fold change” value was 0.107. In the case of B4, the “median log2 fold change” value is reported as 0.234. B5 was tested, and the “median log2 fold change” value was -0.0295. In the case of B6, the “median log2 fold change” value is reported as 0.0127. B7 was tested, and the “median log2 fold change” value was -0.486. In the case of B8, the “median log2 fold change” value is reported as 0.0216. B9 was tested, and the “median log2 fold change” value was -0.379. For B10, the “median log2 fold change” value was 0.232. B11 was tested, and the “median log2 fold change” value was -0.109. For B12, the “median log2 fold change” value was 0.0132. B13 was tested, and the “median log2 fold change” value was 0.0646. In the case of B14, the “median log2 fold change” value is reported as 0.201. For B15, the “median log2 fold change” value was 0.516. For B16, the “median log2 fold change” value was -0.0238. B17 was tested, and the “median log2 fold change” value was -0.304. B18 was tested, and the “median log2 fold change” value was -0.00553. In the case of B19, the “median log2 fold change” value is reported as 0.164.
